# From the supplement of paper PMC8728848
# Some of the results follow.
# B1: rAAL-I144G (Agrocybe aegerita), Q6WY08 (protein)
# chain: MQGVNIYNISAGTSVDLAAPVTTGDIVTFFSSALNLNAGAGNPNNTTLNLFAENGAYLLHIAFRLQENVIIFNSRQPDGPWLVEQRVSDVANQFAGIDGKAMVTVFDHGDKYQVVINEKTVIQYTKQISGLTLSLSYNATEETSGFSTVVEAVTYTGLALEHHHHHH
# How the values were obtained:
# Assay in all cases: glycan array binding signal (z-score within array); higher = stronger binding
# Conditions in all cases: glycan notation: IUPAC condensed, linker removed; mutation: I144G
# [1] = target: Neu5Ac(a2-6)GlcNAc(b1-4)GlcNAc(b1-4)GlcNAc
# Procedure, shortened: (§1)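 The Consortium for Functional Glycomics database supplied 3228 glycan arrays, of which those lacking an available protein sequence were dropped. The binding signal, a within-array Z-score, was averaged across arrays of the same protein sequence and across linkers. Negative scores can be read as non-binding.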
# Neu5Ac(a2-8)Neu5Ac = target: Neu5Ac(a2-8)Neu5Ac
# Procedure, shortened: as §1
# [2] = target: Neu5Ac(a2-8)Neu5Ac(a2-3)Gal(b1-3)GalNAc(b1-4)[Neu5Ac(a2-3)]Gal(b1-4)Glc
# Procedure, shortened: as §1
# [3] = target: Neu5Ac(a2-8)Neu5Ac(a2-3)Gal(b1-3)GalNAc(b1-4)[Neu5Ac(a2-8)Neu5Ac(a2-3)]Gal(b1-4)Glc
# Procedure, shortened: as §1
# [4] = target: Neu5Ac(a2-8)Neu5Ac(a2-3)Gal(b1-4)Glc
# Procedure, shortened: as §1
# [5] = target: Neu5Ac(a2-8)Neu5Ac(a2-3)Gal(b1-4)GlcNAc
# Procedure, shortened: as §1
# [6] = target: Neu5Ac(a2-8)Neu5Ac(a2-3)[Gal(b1-3)GalNAc(b1-4)]Gal(b1-4)Glc
# Procedure, shortened: as §1
# [7] = target: Neu5Ac(a2-8)Neu5Ac(a2-3)[GalNAc(b1-4)]Gal(b1-4)Glc
# Procedure, shortened: as §1
# [8] = target: Neu5Ac(a2-8)Neu5Ac(a2-8)Neu5Ac
# Procedure, shortened: as §1
# [9] = target: Neu5Ac(a2-8)Neu5Ac(a2-8)Neu5Ac(a2-3)Gal(b1-4)Glc
# Procedure, shortened: as §1
# [10] = target: Neu5Ac(a2-8)Neu5Ac(a2-8)Neu5Ac(a2-3)[Gal(b1-3)GalNAc(b1-4)]Gal(b1-4)Glc
# Procedure, shortened: as §1
# [11] = target: Neu5Ac(a2-8)Neu5Ac(a2-8)Neu5Ac(a2-3)[GalNAc(b1-4)]Gal(b1-4)Glc
# Procedure, shortened: as §1
# [12] = target: Neu5Ac(a2-8)Neu5Ac(a2-8)Neu5Ac(a2-8)Neu5Ac(a2-3)[GalNAc(b1-4)]Gal(b1-4)Glc
# Procedure, shortened: as §1
# [13] = target: Neu5Ac(a2-8)Neu5Gc(a2-3)Gal(b1-4)GlcNAc
# Procedure, shortened: as §1
# [14] = target: Neu5Ac(b2-6)Gal(b1-4)GlcNAc
# Procedure, shortened: as §1
# Neu5Ac(b2-6)GalNAc = target: Neu5Ac(b2-6)GalNAc
# Procedure, shortened: as §1
# [15] = target: Neu5Ac9Ac(a2-3)Gal(b1-3)GlcNAc
# Procedure, shortened: as §1
# [16] = target: Neu5Ac9Ac(a2-3)Gal(b1-4)GlcNAc
# Procedure, shortened: as §1
# [17] = target: Neu5Ac9Ac(a2-6)Gal(b1-4)GlcNAc
# Procedure, shortened: as §1
# [18] = target: Neu5Gc(a2-3)Gal(b1-3)GlcNAc
# Procedure, shortened: as §1
# [19] = target: Neu5Gc(a2-3)Gal(b1-3)[Fuc(a1-4)]GlcNAc
# Procedure, shortened: as §1
# Neu5Gc(a2-3)Gal(b1-4)Glc = target: Neu5Gc(a2-3)Gal(b1-4)Glc
# Procedure, shortened: as §1
# [20] = target: Neu5Gc(a2-3)Gal(b1-4)GlcNAc
# Procedure, shortened: as §1
# [21] = target: Neu5Gc(a2-3)Gal(b1-4)GlcNAc(b1-3)Gal(b1-4)GlcNAc(b1-2)Man(a1-3)[Neu5Gc(a2-3)Gal(b1-4)GlcNAc(b1-3)Gal(b1-4)GlcNAc(b1-2)Man(a1-6)]Man(b1-4)GlcNAc(b1-4)GlcNAc
# Procedure, shortened: as §1
# [22] = target: Neu5Gc(a2-3)Gal(b1-4)[Fuc(a1-3)]GlcNAc
# Procedure, shortened: as §1
# [23] = target: Neu5Gc(a2-6)Gal(b1-4)GlcNAc
# Procedure, shortened: as §1
# Neu5Gc(a2-6)GalNAc = target: Neu5Gc(a2-6)GalNAc
# Procedure, shortened: as §1
# [24] = target: Neu5Gc(a2-8)Neu5Ac(a2-3)Gal(b1-4)GlcNAc
# Procedure, shortened: as §1
# [25] = target: Neu5Gc(a2-8)Neu5Gc(a2-3)Gal(b1-4)GlcNAc
# Procedure, shortened: as §1
# [26] = target: Neu5Gc(a2-8)Neu5Gc(a2-3)Gal(b1-4)GlcNAc(b1-3)Gal(b1-4)GlcNAc
# Procedure, shortened: as §1
# [27] = target: Neu5Gc(a2-8)Neu5Gc(a2-6)Gal(b1-4)GlcNAc
# Procedure, shortened: as §1
# [28] = target: Neu5Gc(b2-6)Gal(b1-4)GlcNAc
# Procedure, shortened: as §1
binder,measurement,setting,value
B1,glycan array binding signal (z-score),[1],-0.151
same,glycan array binding signal (z-score),Neu5Ac(a2-8)Neu5Ac,-0.09
same,glycan array binding signal (z-score),[2],1.99
same,glycan array binding signal (z-score),[3],-0.16
same,glycan array binding signal (z-score),[4],-0.139
same,glycan array binding signal (z-score),[5],-0.083
same,glycan array binding signal (z-score),[6],-0.16
same,glycan array binding signal (z-score),[7],-0.048
same,glycan array binding signal (z-score),[8],-0.155
same,glycan array binding signal (z-score),[9],-0.026
same,glycan array binding signal (z-score),[10],0.014
same,glycan array binding signal (z-score),[11],-0.089
same,glycan array binding signal (z-score),[12],-0.147
same,glycan array binding signal (z-score),[13],-0.114
same,glycan array binding signal (z-score),[14],-0.137
same,glycan array binding signal (z-score),Neu5Ac(b2-6)GalNAc,-0.135
same,glycan array binding signal (z-score),[15],-0.174
same,glycan array binding signal (z-score),[16],-0.107
same,glycan array binding signal (z-score),[17],-0.153
same,glycan array binding signal (z-score),[18],-0.165
same,glycan array binding signal (z-score),[19],-0.072
same,glycan array binding signal (z-score),Neu5Gc(a2-3)Gal(b1-4)Glc,-0.166
same,glycan array binding signal (z-score),[20],-0.001
same,glycan array binding signal (z-score),[21],0.998
same,glycan array binding signal (z-score),[22],-0.174
same,glycan array binding signal (z-score),[23],-0.134
same,glycan array binding signal (z-score),Neu5Gc(a2-6)GalNAc,-0.086
same,glycan array binding signal (z-score),[24],-0.169
same,glycan array binding signal (z-score),[25],-0.122
same,glycan array binding signal (z-score),[26],0.018
same,glycan array binding signal (z-score),[27],-0.126
same,glycan array binding signal (z-score),[28],-0.076
